# Among all 310,000 compounds or so, about 18,000 (5.8%) were called active. The shares of active, inactive and inconclusive entries below differ from those in the screen. Calls follow the shape of the dose curve; as a rule, active = well fitted inhibition curve with a large enough effect; inconclusive = small, poorly fitted or top-dose-only effect, or another doubt; inactive = no such curve, though single readings can be large or run the other way. Potencies of inconclusive entries are left out as doubtful fits.
# Experiment: Primary qHTS for delayed death inhibitors of the malarial parasite plastid, 48 hour incubation
# Details: P. falciparum luciferase growth in erythrocytes; series mostly up to 28.7 µM
# Text: The goal of this screen is to discover new antimalarial compounds that act by inhibiting the development of the apicoplast in the malarial parasite Plasmodium falciparum. The biochemical processes that make this organelle essential for erythrocytic stage parasites are not well understood. However, antibiotics such as azithromycin and tetracycline, which target the apicoplast translational machinery, have a potent antimalarial effect.
# We have developed a cell-based assay that measures parasite growth based on the expression of an integrated copy of a firefly luciferase reporter. To detect small molecules that cause this "delayed death" phenotype, erythrocytes infected with the luciferase-expressing parasites were incubated with compounds for either one or two generations, corresponding to 48 and 96 hours, respectively. Compounds that inhibit parasite growth in the second generation, but not the first, should be enriched in antimalarials that target the apicoplast. Growth inhibition is detected by a decrease in luciferase activity.
# Assay Provider: David Fidock and Eric Ekland, Columbia University
# Keywords: NIH Roadmap, MLPCN, MLI, MLSMR, qHTS, NCGC, qHTS, malaria, luciferase, viability
# Four microliters of culture medium (RPMI 1640 with 0.5% w/v Albumax (GIBCO), 24 mM sodium bicarbonate and 10 ug/mL gentamycin) were dispensed by a Multi-drop Combi into white solid 1536-well plates (Grenier) and 23 nL compound was added by a pin tool. Four microliters of infected erythrocytes (2% hematocrit, 0.1% parasitemia final concentration) in culture medium were dispensed and the plates incubated for 48 hours at 37 C in 5% CO2. Two microliters of luciferase detection reagent was added and luminescence was detected by a ViewLux (PerkinElmer) reader.
# Potency is read from the fitted curve at half-maximal effect; tags tell the direction and shape of the fitted curve.
row,Structure (SMILES),Potency
1,O=C(COC(=O)c1ccc2[nH]c3c(c2c1)CCCC3)Nc1ccccc1Cl,"inconclusive [inhibitor, partial curve, poor fit]"
2,CN(C)CCCNC(=O)CCC1CCCCC1,inactive
3,Cc1onc(-c2ccccc2)c1CNC(=O)C1COc2ccccc2O1 (configuration not stated),active: 13.1 µM
4,CC(OC(=O)c1ccc(-n2cnnn2)cc1)C(=O)Nc1ccccc1[N+](=O)[O-] (configuration not stated),"inconclusive [inhibitor, partial curve, poor fit]"
5,O=C1CC(c2ccsc2)c2cc3c(cc2N1)OCCO3 (configuration not stated),"inconclusive [inhibitor, partial curve]"
6,Cc1cccc(COc2ccc(S(=O)(=O)N3CCOCC3)cc2[N+](=O)[O-])c1,"inconclusive [inhibitor, single point]"
7,CC(=O)N1CCOc2ccc(S(=O)(=O)N3CCC(C(=O)Nc4ccccc4F)CC3)cc21,"inconclusive [inhibitor, partial curve, poor fit]"
8,FC(F)(F)c1ccccc1NC(=S)N1CCc2ccccc2C1,inactive
9,CCN(CC)c1ccc(-c2nn3c(-c4cccnc4)nnc3s2)cc1,"inconclusive [inhibitor, partial curve, poor fit]"
10,COC(=O)C1=CN(Cc2cccs2)C=C(C(=O)OC)C1c1cccc(OC)c1OC,"inconclusive [inhibitor, single point]"
11,Cc1ccc(CNC(=O)c2cn(C3CCCC3)c(=O)c3c2c2ccccc2n3C)o1,"inconclusive [inhibitor, single point]"
12,Cn1c(=O)[nH]c(=O)c2c1nc(Br)n2CC(O)c1ccccc1 (configuration not stated),"inconclusive [inhibitor, single point]"
13,CCOC(=O)c1c(CSc2ccccc2)oc2ccc(O)cc12,"inconclusive [inhibitor, single point]"
14,CCOc1ccc(CCNC(=O)c2cc(-c3ccccc3)c(N3CCOCC3)s2)cc1OCC,"inconclusive [inhibitor, partial curve, poor fit]"
15,Cc1ccc(C(=O)NCCCN2CCOCC2)cc1S(=O)(=O)N1CCCCC1,"inconclusive [inhibitor, partial curve, poor fit]"
16,Nc1cc(=O)[nH]c(SCC(=O)Nc2ccccc2Sc2ccccc2)n1,"inconclusive [inhibitor, full curve, poor fit]"
17,COc1ccc(Br)cc1/C=N/NC(=O)c1ccc(OC)c(OC)c1,active: 4.15 µM
18,COc1cc(/C=C2\SC(=Nc3ccc(F)cc3)N(c3ccc(F)cc3)C2=O)ccc1OCC(=O)O,"inconclusive [inhibitor, full curve, poor fit]"
19,Cc1ccc(NC(=O)COc2cccnc2[N+](=O)[O-])cc1S(=O)(=O)N1CCCCC1,"inconclusive [inhibitor, single point]"
20,CCOC(=O)c1cc(C(=O)Nc2ccc(S(=O)(=O)Nc3ccc(OC)cc3)cc2)nn1C,"inconclusive [inhibitor, partial curve, poor fit]"
21,O=C(C1CC1)N1CCN(C(c2ccccc2)c2ccccc2)CC1,"inconclusive [inhibitor, single point]"
22,O=C(N/N=C/c1ccc(OCC(=O)N2CCCC2)cc1)C(=O)NC1CC1,inactive
23,Cc1ccnc(NS(=O)(=O)c2ccc(NC(=O)c3ccc([N+](=O)[O-])s3)cc2)n1,active: 4.15 µM

row,Structure (SMILES),Potency
1,CCOC(=O)c1cc(C#N)c(Oc2ccc(F)cc2)nc1-c1ccccc1,"inconclusive [inhibitor, partial curve, poor fit]"
2,Cc1ccc(C(=O)Nn2c(O)c(C=C3N=c4ccccc4=N3)sc2=S)cc1,inactive
3,CC(C)Cn1cnc2c1c(=O)n(CC(=O)O)c(=O)n2Cc1ccccc1,"inconclusive [inhibitor, partial curve, poor fit]"
4,Cc1cccc(CNC(=O)c2ccc(NC(=O)C3=CSCCO3)cc2)c1,inactive
5,CCN(CC1CCCN(CCc2cccc(F)c2)C1)C(=O)c1ccc(CSC)o1 (configuration not stated),"inconclusive [inhibitor, single point]"
6,Cc1cc(C)n2nc(SCC(=O)c3cc(C)n(CC4CCCO4)c3C)nc2n1 (configuration not stated),"inconclusive [inhibitor, single point]"
7,COc1cc(OC)c(N(C)S(=O)(=O)c2cccc(C(=O)NC3=NCCS3)c2)cc1Cl,active: 10.4 µM
8,CC(C)C(=O)Nc1cccc(NC(=S)NC(=O)c2ccc3c(c2)OCO3)c1,"inconclusive [inhibitor, single point]"
9,CC(Nc1ccc(Cl)cc1)C(=O)NN (configuration not stated),inactive
10,O=c1cc(CO)occ1OCc1cccc(C(F)(F)F)c1,inactive
11,CC1(C(=O)N2CCC(CC3CC(c4cccc(Br)c4)=NO3)(C(=O)NCC3CCCCC3)CC2)CC1 (configuration not stated),"inconclusive [inhibitor, full curve]"
12,O=C(Cn1cnc2ccccc2c1=O)c1c[nH]c2ccccc12,inactive
13,CCOC(=O)N1CCC(N2C(=O)c3ccc(C(=O)NCCC(C)C)cc3C2=O)CC1,inactive
14,O=C(CCN1C(=O)C2CCCCC2C1=O)Nc1nc2c(F)cc(F)cc2s1 (configuration not stated),inactive
15,O=C(NCC1CCCO1)c1cccc(NS(=O)(=O)c2ccccc2)c1 (configuration not stated),inactive
16,O=C(CSc1nnc2c(Cl)cc(C(F)(F)F)cn12)Nc1ccc2c(c1)OCO2,"inconclusive [inhibitor, partial curve, poor fit]"
17,COC(=O)c1sc2ncccc2c1OCc1ccc(Cl)cc1Cl,"inconclusive [inhibitor, full curve, poor fit]"
18,Cc1cc(C)cc(-c2nnc(SCc3ccc(C(=O)O)cc3)o2)c1,inactive
19,COc1ccc(C)cc1Nc1n[n+](C)c(-c2c3ccccc3cc3ccccc23)s1,"inconclusive [inhibitor, full curve]"
20,O=C(Nc1ccc(Oc2cccnc2)cc1)c1cccc([N+](=O)[O-])c1,inactive
21,CCC(C)(C)NC(=O)C(c1cccc(OC)c1OC)N(C(=O)CCC(=O)Nc1cc(C)on1)c1ccc2c(c1)OCCO2 (configuration not stated),"inconclusive [inhibitor, partial curve]"
22,Cc1ccc(C2CC(c3ccccc3)=NN2C(=O)CSc2nnc(-c3ccncc3)n2C)o1 (configuration not stated),"inconclusive [inhibitor, single point]"
23,COCc1ccc(C(=O)N2CCCC(Nc3ccc(C(C)C)cc3)C2)o1 (configuration not stated),"inconclusive [inhibitor, partial curve]"

row,Structure (SMILES),Potency
1,O=C(Nc1ccc([N+](=O)[O-])cc1)Nc1cnccn1,"inconclusive [inhibitor, single point]"
2,CC(=O)c1ccc(NC(=O)CSc2nnc(NC(=O)c3ccco3)s2)cc1,inactive
3,CCOC(=O)C1=C(C)Nc2nnnn2C1c1ccc(OC)c(Br)c1 (configuration not stated),"inconclusive [inhibitor, single point]"
4,COc1ccc(CN(C(=O)c2cc(=O)c3ccccc3o2)C2CCS(=O)(=O)C2)cc1OC (configuration not stated),inactive
5,CC1=NOC(=O)/C1=C\c1ccc(-c2ccc(Cl)c(C(=O)O)c2)o1,inactive
6,CCCn1c(C(=O)OC)cc2c1ccn2-c1ccc(F)cc1,"inconclusive [inhibitor, single point]"
7,CCOC(=O)[C@H]1[C@H]2COc3ccc(Cl)cc3[C@@H]2N2C(=O)CNC(=O)[C@@]12C,inactive
8,CCOC(=O)C1(CCOc2ccccc2)CCN(Cc2ccc(COC)o2)CC1,"inconclusive [inhibitor, single point]"
9,COC(c1ccccc1)c1nnc(CCC(=O)N2CCN(Cc3cccs3)CC2)o1 (configuration not stated),"inconclusive [inhibitor, single point]"
10,Cc1ccc(Cl)c(OCC(=O)Nc2ccc(S(=O)(=O)NC3=NCCCCC3)cc2)c1,"inconclusive [inhibitor, single point]"
11,Cc1cccc(-n2nc3c(c2NC(=O)c2ccco2)CSC3)c1C,"inconclusive [inhibitor, single point]"
12,Cc1ccc(CNC(=O)c2ccccc2CCc2ccccc2)cc1,"inconclusive [inhibitor, single point]"
13,CCN(CC)S(=O)(=O)c1cc(NC(=O)C2Cc3ccccc3C(=O)O2)ccc1C (configuration not stated),inactive
14,Cc1ccc(N(C)S(=O)(=O)c2cccc(C(=O)N(C)Cc3cnn(-c4ccccc4)c3)c2)cc1,"inconclusive [inhibitor, full curve, poor fit]"
15,CCOc1ccc2nc(SCc3ccc(CC(=O)O)cc3)c(C#N)cc2c1,"inconclusive [inhibitor, partial curve, poor fit]"
16,C=CCNC(=O)c1ccccc1NC(=O)c1ccccc1N(C)S(C)(=O)=O,inactive
17,COc1ccc(C(CCN(Cc2ccc(OC)c(OC)c2)C(C)=O)C(C)C)cc1 (configuration not stated),"inconclusive [inhibitor, partial curve]"
18,COCCn1nnnc1C(c1ccc(OC)cc1OC)N1CCN(c2ccccc2F)CC1 (configuration not stated),"inconclusive [inhibitor, single point]"
19,O=C(NCc1ccco1)c1ccc(S(=O)(=O)N2CCCc3ccccc32)cc1,"inconclusive [inhibitor, single point]"
20,COc1ccc(C(=O)NC(=S)Nc2ccc(CN3CCOCC3)cc2)cc1OC,inactive
21,O=S(=O)(Nc1ccc(Cl)cc1)c1ccc(N2CCOCC2)c(NC(=S)NCCN2CCOCC2)c1,"inconclusive [inhibitor, single point]"
